From publication PMC4336329 (PLoS ONE, 2015)
The whole screen tested about 310,000 compounds, of which about 2,200 (0.71%) showed an effect of 50% or more. Effects have a minus sign here. Some of the results follow.

target: human ether-à-go-go-related gene (hERG) potassium channel (human, UniProt Q12809); assay: primary screen, population patch clamp on CHO cells stably expressing hERG
Sequence (Q12809 whole entry, looked up): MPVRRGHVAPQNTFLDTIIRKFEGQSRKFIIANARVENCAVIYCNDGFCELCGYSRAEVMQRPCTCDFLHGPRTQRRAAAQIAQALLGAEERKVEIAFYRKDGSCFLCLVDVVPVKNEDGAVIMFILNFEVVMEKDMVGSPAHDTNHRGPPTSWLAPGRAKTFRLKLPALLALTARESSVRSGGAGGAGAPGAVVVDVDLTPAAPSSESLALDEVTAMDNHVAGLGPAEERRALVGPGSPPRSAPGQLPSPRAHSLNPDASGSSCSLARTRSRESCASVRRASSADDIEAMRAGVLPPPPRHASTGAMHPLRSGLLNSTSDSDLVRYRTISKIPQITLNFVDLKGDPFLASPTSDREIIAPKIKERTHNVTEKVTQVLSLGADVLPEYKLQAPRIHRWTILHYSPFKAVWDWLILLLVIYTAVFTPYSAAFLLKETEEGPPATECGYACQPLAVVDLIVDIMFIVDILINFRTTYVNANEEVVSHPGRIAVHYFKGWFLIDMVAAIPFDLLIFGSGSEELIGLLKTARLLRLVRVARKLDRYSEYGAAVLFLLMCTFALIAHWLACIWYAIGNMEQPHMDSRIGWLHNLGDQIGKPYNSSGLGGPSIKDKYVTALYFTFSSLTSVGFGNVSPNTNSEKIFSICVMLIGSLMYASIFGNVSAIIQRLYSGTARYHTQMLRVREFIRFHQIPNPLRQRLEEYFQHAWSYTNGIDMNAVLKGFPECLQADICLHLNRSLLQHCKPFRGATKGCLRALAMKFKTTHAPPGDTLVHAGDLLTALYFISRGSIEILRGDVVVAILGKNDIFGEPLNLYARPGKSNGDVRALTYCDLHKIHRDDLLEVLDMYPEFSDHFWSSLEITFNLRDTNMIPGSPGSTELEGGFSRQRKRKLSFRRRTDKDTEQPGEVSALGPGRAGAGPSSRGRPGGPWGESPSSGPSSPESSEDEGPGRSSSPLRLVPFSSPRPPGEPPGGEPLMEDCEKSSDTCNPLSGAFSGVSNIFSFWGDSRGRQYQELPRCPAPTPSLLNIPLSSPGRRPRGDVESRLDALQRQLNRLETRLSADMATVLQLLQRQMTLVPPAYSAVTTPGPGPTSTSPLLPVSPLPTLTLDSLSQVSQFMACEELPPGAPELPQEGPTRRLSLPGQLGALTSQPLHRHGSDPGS

| SMILES | hERG current change (%, negative = inhibition) at 1uM [%] |
| --- | --- |
| COC(=O)c1ccc2c(c1)S(=O)(=O)NC(=NCCCN1CCOCC1)S2.Cl | 12.1 |
| CC(=O)Nc1ccc(NC(=O)CSc2nc(N)c(NC(=O)c3ccco3)c(=O)[nH]2)cc1 | 17.6 |
| COc1cccc(OC)c1OCCCOc1cccc2cccnc12 | 13.9 |
| O=C(COc1ccccc1-c1ccccc1)N/N=C/c1ccc2ccccc2c1 | 11.3 |
| Cc1cc(-c2ccc(C(C)C)c(S(=O)(=O)Nc3cc(C)on3)c2)on1 | 10.2 |
| Cc1cc(C)cc(-n2c(SC(C)C(=O)NCc3ccc4c(c3)OCO4)nc3ccccc3c2=O)c1 (centres unmarked) | 12.1 |
| O=C(Nc1cc(Cl)ccn1)C1CCN(S(=O)(=O)c2cccs2)CC1 | 5.16 |
| C=CCn1c(O)c(C(CC)=Nc2ccc3c(c2)CCC3)c(=O)[nH]c1=O | 7.05 |
| CC(C)(C)CC(=O)Nc1ccc(-c2nnc3n2CCCCC3)cc1 | 17.3 |
| O=C(c1cc([N+](=O)[O-])ccc1N1CCOCC1)N1CCN(c2ccc([N+](=O)[O-])cc2)CC1 | -74 |
| O=C(/C=C/c1ccc(-c2ccccc2[N+](=O)[O-])o1)c1ccco1 | 22.3 |
| CCOC(=O)c1cc(C)n(-c2ccc(Cl)cc2)c1C | 7.88 |
| Cc1ccc(Nc2nnc(SCC(=O)Nc3ncc(S(=O)(=O)c4ccc([N+](=O)[O-])cc4)s3)s2)cc1 | 1.76 |
| O=S(=O)(c1ccc2c(c1)OCCO2)N(Cc1ccc(F)cc1)Cc1nnc(-c2cccs2)o1 | 8.04 |
| COC(=O)c1c(C)[nH]c(C(=O)CN(C)CC(=O)Nc2cccc(F)c2)c1C | 1.72 |
| CC(=O)N1CCc2cc(S(=O)(=O)NC(C)c3ccccc3)ccc21 (centres unmarked) | 10.5 |
| O=C(CSc1nc2ccccc2[nH]1)c1cccs1 | 3.62 |
| COc1ccc(OC)c(/C=N/n2c(C)nc3ccccc3c2=O)c1 | 11.6 |
| COc1ccc(-c2c(C)c3ccc(O)cc3oc2=O)cc1OC | 16.3 |
| CCN(CCn1cccn1)C(=O)C1CCC(=O)N(CCc2cccc(F)c2)C1 (centres unmarked) | 13.6 |
| CC(C)CCn1c(N)c(C(=O)OCC2CCCO2)c2nc3ccccc3nc21 (centres unmarked) | -1.73 |
| O=C(O)CCCNC(=O)c1ccc(NC(=O)Cc2ccc(Cl)cc2)cc1 | 13.9 |

| SMILES | hERG current change (%, negative = inhibition) at 1uM [%] |
| --- | --- |
| COc1ccc(CN2CCN(Cc3ccc(OC)c(OC)c3OC)CC2)cc1.O=C(O)C(=O)O | -11.5 |
| CC1(C)NC(=O)N(CC(=O)O)C1=O | 8.5 |
| CC(=O)/C(=N/Nc1ccccc1)Sc1nnc(C(O)c2ccccc2)n1-c1ccccc1 (centres unmarked) | 0.944 |
| Cc1ccc(-c2nnn(CC(=O)N(c3ccccc3)C(C(=O)NCC3CCCO3)c3ccc(F)cc3)n2)o1 (centres unmarked) | 16.7 |
| O=C(c1ccco1)N1CCN(C(=O)c2cc(-c3ccncc3)nc3ccc(Br)cc23)CC1 | -33.4 |
| CCN(Cc1ccccc1)C(=O)COC(=O)CNC(=O)c1ccc(C)s1 | 12.2 |
| Cc1ccc(-c2nnc(Nc3cccc(O)c3)c3ccccc23)cc1S(=O)(=O)NCCO | 5.32 |
| O=C(NCCc1ccccc1)C(=O)Nc1nccs1 | -1.13 |
| Clc1ccc(-c2csc3ncnc(NCCN4CCOCC4)c23)cc1 | -2.51 |
| CN/C=C1\C(=O)C(C)(C)Oc2ccc3ccc(=O)oc3c21 | 15.8 |
| Cc1ccsc1-c1nc(CSCC(=O)N2CCN(c3ccccc3)CC2)c(C)o1 | 9.72 |
| CCc1c(C)nc(SCC(N)=O)c(C#N)c1C | -0.152 |
| CCOC(=O)N1CCN(C(=O)c2ccc3c(c2)NC(=O)/C(=C\c2cccc(C)c2)S3)CC1 | -0.445 |
| O=C(NCCCc1ccccc1)c1c(O)nc2sccn2c1=O | 5.52 |
| NC(=O)c1c(NC(=O)C2c3ccccc3Oc3ccccc32)sc2c1CCCCC2 | 19 |
| CN(Cc1nc2ccccc2[nH]1)Cc1nc(CC2CC2)no1 | 3.11 |
| COc1ccccc1/C=N/N1C(=O)C(CC(=O)Nc2ccc([N+](=O)[O-])cc2OC)SC1=Nc1cccc(C)c1C (centres unmarked) | 10.7 |
| CCc1c(C)nc(SCC(=O)N2CCCCC2C)[nH]c1=O (centres unmarked) | 10.6 |
| COCCN(C(=O)c1ccccc1OC)c1nnc(C)s1 | 7.48 |
| CC(=O)Nc1ccc(S(=O)(=O)N2CCN(C(=O)Cc3ccccc3)CC2)cc1 | 3.3 |
| O=C(NCCCn1ccnc1)/C(=C\c1cccs1)NC(=O)c1ccco1 | -5.24 |
| COc1ccc(OC2CCN(S(=O)(=O)c3ccc(OC)cc3)CC2)cc1 | 12 |

| SMILES | hERG current change (%, negative = inhibition) at 1uM [%] |
| --- | --- |
| CC(CNC(=O)Cn1ccc(NC(=O)OCc2ccccc2)nc1=O)c1ccccc1 (centres unmarked) | 7.22 |
| COc1ccc(CC(=O)Nc2nnc(-c3cccc([N+](=O)[O-])c3)s2)cc1 | 9.09 |
| O=C(Nc1nc(-c2cccc3ccccc23)cs1)c1ccc2c(c1)S(=O)(=O)c1ccccc1C2=O | 15 |
| NNC(=O)c1csc(-c2ccccc2)n1 | 19.6 |
| CCOC(=O)c1c(NC(=O)CCN2CCOCC2)sc(C)c1-c1ccccc1 | 16.3 |
| Cn1c2ccccc2c2cc(C(=O)O)ccc21 | 8.56 |
| O=C(O)CSCc1nc2ccccc2s1 | 11.4 |
| O=C(NC1CCCC1)C(c1cccs1)N(C(=O)c1ccco1)c1ccc2c(c1)OCO2 (centres unmarked) | 11.1 |
| COc1ccc(-c2nnn(CC(=O)Nc3sc4c(c3C#N)CCCC4)n2)cc1 | 13.7 |
| Nc1c(C(=O)O)cnc2nc(N3CCOCC3)nn12 | 16.6 |
| CCOC(=O)C1=C(COC(=O)/C=C/c2ccccc2)NC(=O)NC1C (centres unmarked) | 4.52 |
| Cc1ccccc1CS(=O)(=O)CCC(=O)NCCCN1CCOCC1 | 6.53 |
| O=C(NC12CC3CC(CC(C3)C1)C2)N1CCN(c2ccccn2)CC1 | 12.7 |
| CCc1nnc(NS(=O)(=O)c2ccc(NC(=O)c3cc(Cl)ccc3Cl)cc2)s1 | 14 |
| COc1ccc2ccccc2c1/C=N/O | 12.2 |
| Cn1nc(-c2ccc(S(N)(=O)=O)s2)cc1C(F)(F)F | 9.37 |
| CC(=O)Nc1ccc(S(=O)(=O)NCC(=O)OCc2cc(=O)oc3ccc4ccccc4c23)cc1 | 13.7 |
| O=C(Nc1ccc(C(F)(F)F)cc1)OC1CN2CCC1CC2 (centres unmarked) | -8.69 |
| O=C(O)c1c2c(nc3ccc(S(=O)(=O)N4CCC(C(=O)NC5CCCCCC5)CC4)cc13)CCCC2 | 8.59 |
| COc1ccccc1OCC#CCNC1CCCCC1C.O=C(O)C(=O)O (centres unmarked) | 4.24 |
| Cl.Clc1ccc(CNC2CCCC2)cc1 | 1.03 |
| O=C(CSc1ccccc1)Nc1ccc2c(c1)OCCO2 | 8.08 |

| SMILES | hERG current change (%, negative = inhibition) at 1uM [%] |
| --- | --- |
| Cc1onc(-c2ccccc2Cl)c1C(=O)Nc1cccc(-c2nc3ncccn3c2C)c1 | -38.2 |
| CCC(C)[C@H](NC(=O)Nc1ccccc1F)C(=O)OC (some centres unmarked) | 12.8 |
| COc1cc(-c2noc(C3CCCN(C(=O)c4c(F)cccc4F)C3)n2)cc(OC)c1OC (centres unmarked) | 15.5 |
| O=C(O)C1C2CCC(CC2)C1C(=O)N1CCN(Cc2ccc(F)cc2)CC1 (centres unmarked) | 22.1 |
| C=CCn1c(O)c2ccc(C(=O)N=NC(=O)c3ccc(F)cc3)cc2c1O | 12.9 |
| CC(=O)N(/N=C1\Sc2ccccc2C1=O)c1ccccc1C | -7.05 |
| CC(C)CCn1c(CN2CCN(C(=O)c3ccco3)CC2)nc2c1c(=O)n(C)c(=O)n2C | -5.44 |
| O=C(O)c1cccc(NC(=O)c2cn(-c3ccccc3)nc2-c2ccc(F)cc2)c1 | 14.7 |
| CCOC(=O)N1CCN(C(=O)c2ccc(NC(=O)c3ccc(C)cc3)cc2)CC1 | 1.61 |
| CCOC(=O)c1sc2cc([N+](=O)[O-])cc(SCC(C)C)c2c1N | 13 |
| C[C@@H](NC(=O)c1[nH]cnc1C(=O)Nc1ccccc1)c1ccccc1 | 15 |
| CN(/N=C/c1cc(Cl)cc(Cl)c1O)C(=S)NC(C)(C)C | 7.47 |
| N#C/C(=C\C1CC=CCC1)c1nc2ccccc2[nH]1 (centres unmarked) | -2.32 |
| CCN(CC)S(=O)(=O)c1ccc(N2CCOCC2)c(NC(=O)C(=O)c2c(-c3ccccc3)cc3ccccn23)c1 | 16.1 |
| Cc1nn(C)cc1S(=O)(=O)Nc1ncccn1 | -5.88 |
| CCN(CC)S(=O)(=O)c1ccc(NC(=O)COC(=O)c2c[nH]c(=O)[nH]c2=O)cc1 | 11.1 |
| Cc1c(NC(=O)C(C)Sc2n[nH]c(N)n2)c(=O)n(-c2ccccc2)n1C (centres unmarked) | 13.3 |
| CCOC(=O)c1oc2ccc(/C=N/O)c(Cl)c2c1C | 17.2 |
| O=C1CCCC/C1=C\Nc1ccccc1C(=O)O | -3.31 |
| NC(N)=NS(=O)(=O)c1ccc(N/C=C/C(=O)c2ccc(Cl)c(Cl)c2)cc1 | 13.4 |
